Values of other authors, collected in article PMC3048380, “Crystal Structure of an Integron Gene Cassette-Associated Protein from Vibrio cholerae Identifies a Cationic Drug-Binding Module” (PLoS ONE, 2011).

Target: BmrR E134Q
Details: earlier binding studies of BmrR, no footnote on the cell; cited from earlier work

For `c1ccc([P+](c2ccccc2)(c2ccccc2)c2ccccc2)cc1` [tetraphenylphosphonium (TPP), tetraphenylphosphonium chloride], the Kd is listed as 62.6 ± 3.3 µM.
